Measured values as given in the supplement of paper PMC11417369.
± gives the standard deviation of the averaged measurements. The list shows a part of the results.

What follows are sequences tested on PfAP2-I AP2 domain 3 (GST-tagged) (assay: gcPBM binding intensity (ln(normalized median fluorescence intensity)); higher = stronger DNA binding).
How it was run: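 Binding intensity is defined as the maximum Masliner-normalised natural-log median intensity across replicate spots for either probe orientation. It was measured on an Agilent 4 × 180k array of primer-extended double-stranded 36-bp intergenic genomic probes and negative controls, to which GST-tagged P. falciparum DNA-binding domains made in E. coli were applied for 1 h in 1× PBS with 1% milk, 0.2 mg/ml BSA, 0.5% salmon testes DNA and 0.03% Triton X-100. Detection was by Alexa488 anti-GST antibody and scanning at 488 nm.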

Sequence	gcPBM binding intensity (ln)
GAAACTTCAAGAAATGCACACAATAAAATAAATAAA [CACACA_site1549]	8.91 ± 0.14
ATAGAATATTATATTACACACAGAATAATAAAAAAT [CACACA_site86]	7.75 ± 0.58
AGTATATATTATATATATATATATATATTATATATG [TGCATGCA_negctrl_site99]	7.8 ± 0.47
TTTAATCATATGTTATATAATAAGCCCCCCCCCCAA [CACACA_negctrl_site486]	11.1 ± 0.63
AAAAAAATTAAACATGAAGAATAAGGAACAAAAAAA [CACACA_negctrl_site1607]	7.73 ± 0.69
ATTTAAGTAGTACATACACACACATATACAAAAAGA [CACACA_site9317]	8.36 ± 0.28
ATGGGACATATATATACACACATATATATATATATA [CACACA_site1202]	9.22 ± 0.73
TTTCGATTAAAAATTGTACAATATAAGGAGCACACA [GTGCAC_negctrl_site476]	8.51 ± 0.32
ACTGTAACAATCATGGGTACAAATAAAATAATATCT [XGTACX_site99]	7.98 ± 0.57
ATGAAAATTATAAAGTGTACATATAGAAACATTTAC [XGTACX_site8047]	7.91 ± 0.56
AACCACAGACATATAACACACATATACAATATATAT [CACACA_site5142]	8.14 ± 0.39
CTTTTTTTGACCTTAGTGCAAATAACTATATATTAT	10.5 ± 0.41
TAAAAAAAAAAATGAACATGCAACAATTGTGATGAA [TGCATGCA_site332]	7.55 ± 0.83
TTTTGTCTTATATGTTGTACAACGTAAACAAAAAAA [XGTACX_site4412]	8.07 ± 0.4
AAAAGAATATATAATTGTACTTAAAATATAATTAAG [XGTACX_site4484]	7.61 ± 0.27
TATTTTAACTTCTCATGTACATATATTATGTCTATA [XGTACX_site249]	8.06 ± 0.46
CTTTGTAGTATATTAACACACAACTATTTATAATAT [CACACA_site3934]	7.7 ± 0.5
TATCATAAACTTCCTTACTATACTTTTCTTATTCAT [CACACA_negctrl_site1341]	7.91 ± 0.45
TAAAAAGGAAAACACACACACACATATATATATATA [CACACA_site3588]	9.49 ± 0.34
ATTTTTAAGCATATCAAAAAAAAAAAAAAAATTAAT [CACACA_negctrl_site980]	7.49 ± 0.45
TTACTAAAAATTATTAATAAATAATAATTATAAATT [GTGCAC_negctrl_site310]	7.26 ± 0.39
TTATTATTAAGACACACACACAAAAAAAAAAAAAAA [CACACA_site6805]	8.21 ± 0.54

Sequence	gcPBM binding intensity (ln)
TTTCCAATTAGTTTTGCATGTTGAAAAAATGTTGGA [TGCATGCA_site1035]	7.71 ± 0.52
TAACATATCTTTAATACACACTTAAAAAAGTACTTA [CACACA_site4532]	7.82 ± 0.35
GGAAACACAATATATACACACATATATATATATATA [CACACA_site235]	9.09 ± 0.58
ACACTTAAATATTGTTGTACAAAATGATAAAATGTA [XGTACX_site4588]	7.87 ± 0.42
TTATATAACCCTCATGCATGCTAAGAAAAAAAAAAC [TGCATGCA_site936]	8.13 ± 0.75
ATTTATATTATAATATGTACACAAAAAAAATTAGGA [XGTACX_site565]	8.32 ± 0.2
ACCATACATACATACACACACACACCCATATATATA [CACACA_site2917]	8.72 ± 0.42
TTTCATGTTTTAAAGTGTACATAAATATATTATATG [XGTACX_site3367]	7.91 ± 0.51
TTGTTAGAGTATATTGAAAGGATAACCTTTTTTTAT [XGTACX_negctrl_site122]	7.43 ± 0.75
TTTTTAATAAAATGATTGATAATTATTAAATTAAAA [CACACA_negctrl_site488]	7.17 ± 0.39
TTGTGTTTGCGTAAATGTACGGAAAGACTTGAAGAC [XGTACX_site7235]	8.41 ± 0.61
AGCCATTATAATTCTTGTACATAATATAGCTATTTT [XGTACX_site1723]	7.92 ± 0.61
GAGCACCAAAATATATGTACATATGATAAATGTGAA [XGTACX_site1130]	7.94 ± 0.62
ACATATATATAATATATATTTTTCGTGTGGTGTCAC [CACACA_negctrl_site543]	7.76 ± 0.38
TCACTTTTATAATATAATATTCTATATCTTATTTTT [GTGCAC_negctrl_site717]	7.47 ± 0.47
TTTTTTATTTTATTTTTTTCTGCTTATCCACATTAG [XGTACX_negctrl_site108]	7.75 ± 0.41
ATCATTGAAGTTAAAAATATAAAGTATTCAGAAGGG [XGTACX_negctrl_site560]	7.78 ± 0.52
AATATATATATAGGATGTACACATAATTCAAATATA [XGTACX_site2755]	7.83 ± 0.35
TTGTGAATAACTAAGAAGAAAAAGATAAATATGTAT [TGCATGCA_negctrl_site388]	7.98 ± 0.83
TATTCATGCATATACACACACATATATTTATATTTT [CACACA_site7786]	8.37 ± 0.52
AATAATATTGAAATGTGTACGTATTTATATTTTATG [XGTACX_site8252]	7.83 ± 0.27
TTTTTCTTTTTTACAGTGCATAAATATATGTATTGT [GTGCAC_site9399]	10.4 ± 0.45

Sequence	gcPBM binding intensity (ln)
TTTTGTTATATTCAATATTTATATATTATAAATATA [CACACA_negctrl_site1705]	7.75 ± 0.49
TAGATACATACACGCACACACATATATAAATAAATA [CACACA_site6157]	8.38 ± 0.085
AAAAAAAACAGACACACACACATACACATACATACA [CACACA_site2857]	8.04 ± 0.3
TAATTATGTACTATTATACACACGTTTAATTGTAAA [CACACA_site206]	7.89 ± 0.25
AATAATATATGGTGTACACAAAAGTATAAATAATTT [CACACA_site5338]	8.72 ± 0.6
TATAAAAAAATAATAAATAAATAAAAAGATTTCTTT [TGCATGCA_negctrl_site122]	7.2 ± 0.63
TAGATACAGAAACACACACACACATACATATATACA [CACACA_site3437]	7.8 ± 0.38
TTATGGAGAGTTATATGTACGAAAAATATGTATAAG [XGTACX_site515]	8.03 ± 0.61
AGAATTATTGTTAATGCATGTGGAAGTTAAAATATT [TGCATGCA_site188]	8.48 ± 0.69
TATTTAAATTGTAAGTGTACATATATAAATGTAAAA [XGTACX_site1609]	7.99 ± 0.2
TATATAGTAATTTATTCACACAATTGGCACACCTCA [CACACA_site4679]	8.17 ± 0.47
TATAATATATATTTGTGTCCACAACATTTTTAATAT [XGTACX_site2089]	7.91 ± 0.33
TTTTTTTATTAAAAATGTACAAAAATGAAAAAATAA [XGTACX_site8279]	8.15 ± 0.3
CATATAATTTTATGGGTGCATTTTTTTGTAAGACCA	10.1 ± 0.58
ATTTAATTTTTTTTTTTTTTTTTTCAATCCCCTTTT [CACACA_negctrl_site1013]	7.42 ± 0.54
TTTTAAACAAAAATTTGTACACAATAATTAAATATA [XGTACX_site6755]	7.79 ± 0.32
CATTTTAAAGAAAATACACACAAAAATAAATATATA [CACACA_site1395]	7.59 ± 0.53
TAATAATAAATTGGTTGTACAACCTTATACAGAATA [XGTACX_site2592]	7.76 ± 0.39
ACACAAAAAATAAAAATATATATATATTATATATAT [CACACA_negctrl_site1489]	8.3 ± 0.3
TAAAAAAATATATATACATGCATAGAAAAAAAAAAA [TGCATGCA_site552]	7.92 ± 0.91
TTTATACACAAAAAATGTACATATATATAATGAATT [XGTACX_site1195]	7.97 ± 0.57
CGTTTATATAGTGATGCATGCATTGTTAACATGGTT [TGCATGCA_site418]	7.99 ± 0.67

Sequence	gcPBM binding intensity (ln)
CGCACAAAAATATACACACACACATATATATTTATT [CACACA_site3645]	7.87 ± 0.45
TGTATGTCTTTATTTTGTACACAATATAAAAAATTA [XGTACX_site5441]	8.04 ± 0.22
TTTAATTTTTTTTAAACACACACATTACATTCAAAA [CACACA_site7926]	7.82 ± 0.41
AATATATAATTTTATAGTACATAATAAAAGAACAGG [XGTACX_site724]	8.29 ± 0.42
TTATATTATGCTTGAATGCACTTTGAAGCACAATCT [GTGCAC_site9789]	10.25 ± 0.071
TATTCAACATAATATGCACACAAAAATTATGGAACG [CACACA_site8660]	8.795 ± 0.021
ATCACATAAAATATGAATATATATTTTATATATATA [CACACA_negctrl_site340]	8.31 ± 0.41
TATATTTACGTATGTCGAACGTTATTTTGAACAACC [CACACA_negctrl_site1261]	7.75 ± 0.58
TTAAAAAAAAAAAGGTGTACTATAATTTAATATCAC [XGTACX_site6316]	8.28 ± 0.26
TGGGTAAACAGACACACACACATATAGATTTATATA [CACACA_site7026]	7.71 ± 0.62
CTTCCAATAAAAAATGCACACATTGAAAATATTGAA [CACACA_site2688]	8.44 ± 0.34
AAATTATATGAACATTGTACTTTATATATGTAAGAA [XGTACX_site1611]	8 ± 0.24
ACACACATATATACATGTACATATATATATATATAT [XGTACX_site451]	9.38 ± 0.75
TATTTTGTTCTTTCCACACACAAATACAGATATTGT [CACACA_site6097]	8.07 ± 0.72
TCTTATCCATATATTACACACTATAAATAGAAATTA [CACACA_site6274]	7.93 ± 0.47
ATTTGTATATATTAATGTACACACATGCGTATGTTC [XGTACX_site7579]	7.83 ± 0.66
TATAAATATAAATATACACACATATATTTATTTATA [CACACA_site6890]	7.39 ± 0.23
AACAGTAACATTGAATGTACTTAATTTTAAGAAAAT [XGTACX_site2971]	7.61 ± 0.42
ACACATAATATGTGTAGTACTTTTTCTTTAACATTA [XGTACX_site1436]	7.92 ± 0.45
TTAAAATAAAGAAAATGTACATAAATTAAAATAAAG [XGTACX_site2281]	8.03 ± 0.65
TTTTTTTTTTTTTTTATAGTACATTACCAAAAAAAA [CACACA_negctrl_site1197]	8.16 ± 0.71
